In paper PMC6345720:
Results are given in words; binding and its absence hold for the method and conditions named. Binding seen in cells or lysates may run through a third protein. Some binding calls cover weakened binding; strength is not graded here. Where a sequence is shown, tags or fusion partners need not be part of it.

Tests used:
[1] = target: T1, PLDα2-YFP-HA (Arabidopsis thaliana) (UniProt Q9SSQ9); experiment: co-IP; PLD-YFP-HA and RPM1-Myc co-expressed in N. benthamiana leaves; microsomal fractions solubilised in 40 mM Tris-HCl pH 7.5, 150 mM NaCl, 1 mM DTT, 5 mM EDTA, 1% Triton X-100; PLD-YFP-HA precipitated with anti-GFP agarose beads at 4°C for 3 h; RPM1-Myc detected by blot
T1 sequence: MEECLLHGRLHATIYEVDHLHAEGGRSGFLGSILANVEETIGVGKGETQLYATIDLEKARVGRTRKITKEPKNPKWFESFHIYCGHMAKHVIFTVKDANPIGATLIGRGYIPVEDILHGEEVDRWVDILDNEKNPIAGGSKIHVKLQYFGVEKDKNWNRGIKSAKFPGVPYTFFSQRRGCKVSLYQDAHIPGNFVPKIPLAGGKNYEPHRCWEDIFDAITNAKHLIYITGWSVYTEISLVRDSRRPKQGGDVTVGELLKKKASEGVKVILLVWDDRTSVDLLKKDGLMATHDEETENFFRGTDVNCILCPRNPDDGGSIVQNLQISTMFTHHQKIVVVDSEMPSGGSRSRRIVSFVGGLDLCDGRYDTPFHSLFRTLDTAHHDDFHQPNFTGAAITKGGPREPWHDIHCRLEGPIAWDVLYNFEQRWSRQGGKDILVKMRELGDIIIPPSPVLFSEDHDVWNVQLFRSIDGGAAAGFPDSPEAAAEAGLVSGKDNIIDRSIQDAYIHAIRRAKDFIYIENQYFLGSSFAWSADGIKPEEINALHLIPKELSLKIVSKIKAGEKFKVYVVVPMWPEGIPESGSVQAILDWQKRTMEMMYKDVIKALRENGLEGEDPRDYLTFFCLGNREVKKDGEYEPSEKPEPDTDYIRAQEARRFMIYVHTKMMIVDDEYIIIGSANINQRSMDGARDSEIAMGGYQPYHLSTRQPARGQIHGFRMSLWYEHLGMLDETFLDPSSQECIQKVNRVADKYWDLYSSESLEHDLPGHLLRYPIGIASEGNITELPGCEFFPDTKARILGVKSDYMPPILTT

[2] = target: T2, PLDγ3-YFP-HA (Arabidopsis thaliana) (UniProt Q9T052); experiment: as above
T2 sequence: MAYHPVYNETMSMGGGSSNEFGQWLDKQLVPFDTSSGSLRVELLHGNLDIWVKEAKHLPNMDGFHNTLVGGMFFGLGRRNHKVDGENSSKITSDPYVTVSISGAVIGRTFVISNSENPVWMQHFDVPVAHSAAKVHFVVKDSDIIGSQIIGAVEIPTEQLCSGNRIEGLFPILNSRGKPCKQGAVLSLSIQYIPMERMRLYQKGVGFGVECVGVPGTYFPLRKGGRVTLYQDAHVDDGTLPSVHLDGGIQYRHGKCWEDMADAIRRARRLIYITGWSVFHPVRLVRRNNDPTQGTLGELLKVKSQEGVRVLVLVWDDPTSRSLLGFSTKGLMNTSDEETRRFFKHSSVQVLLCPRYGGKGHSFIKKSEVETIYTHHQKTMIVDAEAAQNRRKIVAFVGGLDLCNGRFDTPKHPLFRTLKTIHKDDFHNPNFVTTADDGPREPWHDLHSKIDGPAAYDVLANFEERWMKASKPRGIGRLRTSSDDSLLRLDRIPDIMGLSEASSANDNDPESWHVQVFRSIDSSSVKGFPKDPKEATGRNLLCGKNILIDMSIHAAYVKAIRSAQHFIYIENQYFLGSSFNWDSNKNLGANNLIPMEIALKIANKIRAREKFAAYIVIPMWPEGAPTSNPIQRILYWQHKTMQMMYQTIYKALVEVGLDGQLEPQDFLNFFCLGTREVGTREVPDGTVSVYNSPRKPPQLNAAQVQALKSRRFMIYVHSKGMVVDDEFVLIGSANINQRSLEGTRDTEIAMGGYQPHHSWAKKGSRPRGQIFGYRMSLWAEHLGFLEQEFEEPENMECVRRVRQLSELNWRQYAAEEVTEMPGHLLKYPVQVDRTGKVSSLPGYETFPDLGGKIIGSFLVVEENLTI

binding [1]: binds
binding [2]: no binding
B1: RPM1-Myc (35S::RPM1-Myc) (receptor, UniProt Q39214 1-926)
chain: MASATVDFGIGRILSVLENETLLLSGVHGEIDKMKKELLIMKSFLEDTHKHGGNGSTTTTTQLFQTFVANTRDLAYQIEDILDEFGYHIHGYRSCAKIWRAFHFPRYMWARHSIAQKLGMVNVMIQSISDSMKRYYHSENYQAALLPPIDDGDAKWVNNISESSLFFSENSLVGIDAPKGKLIGRLLSPEPQRIVVAVVGMGGSGKTTLSANIFKSQSVRRHFESYAWVTISKSYVIEDVFRTMIKEFYKEADTQIPAELYSLGYRELVEKLVEYLQSKRYIVVLDDVWTTGLWREISIALPDGIYGSRVMMTTRDMNVASFPYGIGSTKHEIELLKEDEAWVLFSNKAFPASLEQCRTQNLEPIARKLVERCQGLPLAIASLGSMMSTKKFESEWKKVYSTLNWELNNNHELKIVRSIMFLSFNDLPYPLKRCFLYCSLFPVNYRMKRKRLIRMWMAQRFVEPIRGVKAEEVADSYLNELVYRNMLQVILWNPFGRPKAFKMHDVIWEIALSVSKLERFCDVYNDDSDGDDAAETMENYGSRHLCIQKEMTPDSIRATNLHSLLVCSSAKHKMELLPSLNLLRALDLEDSSISKLPDCLVTMFNLKYLNLSKTQVKELPKNFHKLVNLETLNTKHSKIEELPLGMWKLKKLRYLITFRRNEGHDSNWNYVLGTRVVPKIWQLKDLQVMDCFNAEDELIKNLGCMTQLTRISLVMVRREHGRDLCDSLNKIKRIRFLSLTSIDEEEPLEIDDLIATASIEKLFLAGKLERVPSWFNTLQNLTYLGLRGSQLQENAILSIQTLPRLVWLSFYNAYMGPRLRFAQGFQNLKILEIVQMKHLTEVVIEDGAMFELQKLYVRACRGLEYVPRGIENLINLQELHLIHVSNQLVERIRGEGSVDRSRVKHIPAIKHYFRTDNGSFYVSLSS
